# According to the supplement of paper PMC8728848:
# This is one part of the list.
# B1: ASA (Allium sativum) (protein)
# chain: KAHEKERMGRNTPSAKLMSIAAVAAILTILASTCMARNLLTNGEGLYAGQSLNVEPYHFIMQEDCNLVLYDHSTAVWATNTDIPGKKECRAVLQSDGNFVVYDADGRPLWASHSVRGNGNYVLVLQEDGNVVIYGSDIWSTGTYVKAARGPVVVAMNGTVDGGSLIRPVIVNKNHVPVIRKVGTLSRNILRNDEGLYAGQSLDVEPYHFIMHEDCNLVLYDHSTAVWASNTDIPGKKGCKAVLQSDGNFVVYDAEGRSLWASHSVRGNGNYVLVLQEDGNVVIYGSDIWSTDTYRKSARGPVIRKVGTLAGAA
# Tests used:
# Assay in all cases: glycan array binding signal (z-score within array); higher = stronger binding
# Conditions in all cases: glycan notation: IUPAC condensed, linker removed
# [1] = biological target: Neu5Ac(a2-3)Gal(b1-4)GlcNAc
# Procedure, shortened: (§1)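 Glycan array binding is given as a within-array Z-score, which can be read as non-binding when negative. The arrays, 3228 of them, came from the Consortium for Functional Glycomics database and were retained only where the protein sequence was available. Z-scores were averaged across arrays of the same protein sequence at different concentrations or buffers and across linkers.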
# [2] = biological target: Neu5Ac(a2-3)Gal(b1-4)GlcNAc(b1-3)Gal(b1-4)GlcNAc
# Procedure, shortened: as §1
# [3] = biological target: Neu5Ac(a2-3)Gal(b1-4)GlcNAc(b1-3)Gal(b1-4)GlcNAc(b1-3)Gal(b1-4)GlcNAc
# Procedure, shortened: as §1
# [4] = biological target: Neu5Ac(a2-3)Gal(b1-4)GlcNAc(b1-3)Gal(b1-4)[Fuc(a1-3)]GlcNAc
# Procedure, shortened: as §1
# [5] = biological target: Neu5Ac(a2-3)Gal(b1-4)GlcNAc6S
# Procedure, shortened: as §1
# [6] = biological target: Neu5Ac(a2-3)Gal(b1-4)[Fuc(a1-3)]GlcNAc
# Procedure, shortened: as §1
# [7] = biological target: Neu5Ac(a2-3)Gal(b1-4)[Fuc(a1-3)]GlcNAc(b1-3)Gal
# Procedure, shortened: as §1
# [8] = biological target: Neu5Ac(a2-3)Gal(b1-4)[Fuc(a1-3)]GlcNAc(b1-3)Gal(b1-4)GlcNAc
# Procedure, shortened: as §1
# [9] = biological target: Neu5Ac(a2-3)Gal(b1-4)[Fuc(a1-3)]GlcNAc(b1-3)Gal(b1-4)[Fuc(a1-3)]GlcNAc(b1-3)Gal(b1-4)[Fuc(a1-3)]GlcNAc
# Procedure, shortened: as §1
# [10] = biological target: Neu5Ac(a2-3)Gal(b1-4)[Fuc(a1-3)]GlcNAc6S
# Procedure, shortened: as §1
# [11] = biological target: Neu5Ac(a2-3)Gal6S(b1-4)GlcNAc
# Procedure, shortened: as §1
# [12] = biological target: Neu5Ac(a2-3)Gal6S(b1-4)[Fuc(a1-3)]GlcNAc
# Procedure, shortened: as §1
# Neu5Ac(a2-3)GalNAc = biological target: Neu5Ac(a2-3)GalNAc
# Procedure, shortened: as §1
# [13] = biological target: Neu5Ac(a2-3)GalNAc(b1-4)GlcNAc
# Procedure, shortened: as §1
# [14] = biological target: Neu5Ac(a2-3)[GalNAc(b1-4)]Gal(b1-4)Glc
# Procedure, shortened: as §1
# [15] = biological target: Neu5Ac(a2-3)[GalNAc(b1-4)]Gal(b1-4)GlcNAc
# Procedure, shortened: as §1
# [16] = biological target: Neu5Ac(a2-3)[Neu5Ac(a2-6)]GalNAc
# Procedure, shortened: as §1
# [17] = biological target: Neu5Ac(a2-6)Gal(b1-4)GlcNAc
# Procedure, shortened: as §1
# [18] = biological target: Neu5Ac(a2-6)Gal(b1-4)GlcNAc(b1-2)Man(a1-3)[Neu5Ac(a2-6)Gal(b1-4)GlcNAc(b1-2)Man(a1-6)]Man(b1-4)GlcNAc(b1-4)GlcNAc
# Procedure, shortened: as §1
# [19] = biological target: Neu5Ac(a2-6)Gal(b1-4)GlcNAc(b1-3)Gal(b1-4)GlcNAc
# Procedure, shortened: as §1
# [20] = biological target: Neu5Ac(a2-6)Gal(b1-4)GlcNAc(b1-3)Gal(b1-4)[Fuc(a1-3)]GlcNAc(b1-3)Gal(b1-4)[Fuc(a1-3)]GlcNAc
# Procedure, shortened: as §1
# [21] = biological target: Neu5Ac(a2-6)Gal(b1-4)GlcNAc6S
# Procedure, shortened: as §1
# Neu5Ac(a2-6)GalNAc = biological target: Neu5Ac(a2-6)GalNAc
# Procedure, shortened: as §1
# [22] = biological target: Neu5Ac(a2-6)GalNAc(b1-4)GlcNAc
# Procedure, shortened: as §1
# Neu5Ac(a2-8)Neu5Ac = biological target: Neu5Ac(a2-8)Neu5Ac
# Procedure, shortened: as §1
# [23] = biological target: Neu5Ac(a2-8)Neu5Ac(a2-3)Gal(b1-4)Glc
# Procedure, shortened: as §1
# [24] = biological target: Neu5Ac(a2-8)Neu5Ac(a2-3)[GalNAc(b1-4)]Gal(b1-4)Glc
# Procedure, shortened: as §1
# [25] = biological target: Neu5Ac(a2-8)Neu5Ac(a2-8)Neu5Ac
# Procedure, shortened: as §1
# [26] = biological target: Neu5Ac(a2-8)Neu5Ac(a2-8)Neu5Ac(a2-3)Gal(b1-4)Glc
# Procedure, shortened: as §1
# [27] = biological target: Neu5Ac(a2-8)Neu5Ac(a2-8)Neu5Ac(a2-3)[GalNAc(b1-4)]Gal(b1-4)Glc
# Procedure, shortened: as §1
# [28] = biological target: Neu5Ac(a2-8)Neu5Ac(a2-8)Neu5Ac(a2-8)Neu5Ac(a2-3)[GalNAc(b1-4)]Gal(b1-4)Glc
# Procedure, shortened: as §1
# [29] = biological target: Neu5Ac9Ac(a2-6)Gal(b1-4)GlcNAc
# Procedure, shortened: as §1
# [30] = biological target: Neu5Gc(a2-3)Gal(b1-3)GlcNAc
# Procedure, shortened: as §1
# [31] = biological target: Neu5Gc(a2-3)Gal(b1-3)[Fuc(a1-4)]GlcNAc
# Procedure, shortened: as §1
# Neu5Gc(a2-3)Gal(b1-4)Glc = biological target: Neu5Gc(a2-3)Gal(b1-4)Glc
# Procedure, shortened: as §1
# [32] = biological target: Neu5Gc(a2-3)Gal(b1-4)GlcNAc
# Procedure, shortened: as §1
# [33] = biological target: Neu5Gc(a2-3)Gal(b1-4)[Fuc(a1-4)]GlcNAc
# Procedure, shortened: as §1
# [34] = biological target: Neu5Gc(a2-6)Gal(b1-4)GlcNAc
# Procedure, shortened: as §1
# Neu5Gc(a2-6)GalNAc = biological target: Neu5Gc(a2-6)GalNAc
# Procedure, shortened: as §1
binder,measurement,setting,value
B1,glycan array binding signal (z-score),[1],-0.207
same,glycan array binding signal (z-score),[2],-0.227
same,glycan array binding signal (z-score),[3],0.046
same,glycan array binding signal (z-score),[4],-0.243
same,glycan array binding signal (z-score),[5],-0.176
same,glycan array binding signal (z-score),[6],-0.201
same,glycan array binding signal (z-score),[7],-0.222
same,glycan array binding signal (z-score),[8],-0.107
same,glycan array binding signal (z-score),[9],-0.112
same,glycan array binding signal (z-score),[10],-0.22
same,glycan array binding signal (z-score),[11],-0.196
same,glycan array binding signal (z-score),[12],-0.205
same,glycan array binding signal (z-score),Neu5Ac(a2-3)GalNAc,-0.209
same,glycan array binding signal (z-score),[13],-0.107
same,glycan array binding signal (z-score),[14],-0.231
same,glycan array binding signal (z-score),[15],-0.172
same,glycan array binding signal (z-score),[16],-0.232
same,glycan array binding signal (z-score),[17],-0.217
same,glycan array binding signal (z-score),[18],-0.184
same,glycan array binding signal (z-score),[19],-0.226
same,glycan array binding signal (z-score),[20],0.134
same,glycan array binding signal (z-score),[21],-0.233
same,glycan array binding signal (z-score),Neu5Ac(a2-6)GalNAc,-0.232
same,glycan array binding signal (z-score),[22],-0.207
same,glycan array binding signal (z-score),Neu5Ac(a2-8)Neu5Ac,-0.227
same,glycan array binding signal (z-score),[23],-0.228
same,glycan array binding signal (z-score),[24],-0.231
same,glycan array binding signal (z-score),[25],-0.206
same,glycan array binding signal (z-score),[26],-0.226
same,glycan array binding signal (z-score),[27],-0.196
same,glycan array binding signal (z-score),[28],-0.173
same,glycan array binding signal (z-score),[29],-0.224
same,glycan array binding signal (z-score),[30],-0.198
same,glycan array binding signal (z-score),[31],-0.192
same,glycan array binding signal (z-score),Neu5Gc(a2-3)Gal(b1-4)Glc,-0.208
same,glycan array binding signal (z-score),[32],-0.217
same,glycan array binding signal (z-score),[33],-0.216
same,glycan array binding signal (z-score),[34],-0.239
same,glycan array binding signal (z-score),Neu5Gc(a2-6)GalNAc,-0.15
